# About 450 (0.94%) of roughly 48,000 compounds were called active. About 19% were inconclusive and are not listed. Calls follow the shape of the dose curve; as a rule, active = well fitted inhibition curve with a large enough effect; inconclusive = small, poorly fitted or top-dose-only effect; inactive = no such curve, though single readings can be large or run the other way. This is one part of the list.
# Assay: Primary qHTS for Identification of Small Molecule Inhibitors of Huntingtin Promoter Activity; also: nearly all actives have a fitted effect of over 50% in size
# Settings: HEK293 HTT promoter firefly luciferase reporter (activity 0% = vehicle and -100% = no light), 24 h; series mostly up to 57.5 µM; activity change, negative = inhibition: at the top concentration
# In short: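 Firefly luciferase readout (Dual-Glo, 10 min RT) after 24 h, 37 °C compound exposure (final up to 57.5 uM) of HEK293 reporter cells cultured 24 h beforehand; PTC124 at 50 uM final as control inhibitor; activity scaled vehicle 0%, zero RLU -100%.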
# Potency is read from the fitted curve at half-maximal effect.
Structure (SMILES),"activity change, negative = inhibition",Potency
Cc1cccc(C)c1NC(=O)C(=O)NCC(c1ccc2c(c1)OCO2)N1CCOCC1 (centres undefined),inactive: -26.4%,–
COCCCn1c(=N)c(C(=O)NCc2ccco2)cc2c(=O)n3cccc(C)c3nc21,inactive: 0.405%,–
CCOC(=O)c1c(NC(=O)COc2ccc(Br)cc2)sc2c1CCCC2,inactive: -0.519%,–
CCc1ccc(S(=O)(=O)c2nnn3c2nc(Nc2ccc(C)c(Cl)c2)c2sccc23)cc1,inactive: 0.29%,–
O=C(Cn1ncn2nc(-c3cccs3)cc2c1=O)NCc1ccc(Cl)cc1,inactive: -1.41%,–
CCOC(=O)CN1C(C(=O)c2ccccc2)=C(OC(=O)C(C)(C)C)c2ccccc2S1(=O)=O,inactive: 5.5%,–
CC(=O)Nc1cc(C(=O)NCc2ccc(C)cc2)ccc1S(=O)(=O)c1ccc(Cl)cc1,inactive: -18.8%,–
CSc1cccc(NC(=O)Cn2c(=O)n(Cc3ccccc3)c(=O)c3sc4ccccc4c32)c1,inactive: -15.2%,–
Cc1cc(C)n(-c2nc3cc(Cl)ccc3nc2Nc2ccc(C)c(F)c2)n1,inactive: -9.03%,–
CCn1ccc2cc(S(=O)(=O)N3CCC(C(=O)NCc4cccc(Cl)c4)CC3)ccc21,inactive: -20.8%,–
Cc1ccc(-n2ncc(C(=O)NCCN3CCCC3)c2C2CCN(C(=O)OC(C)(C)C)CC2)cc1,inactive: -2.01%,–
CCOc1ccc(N(C)S(=O)(=O)c2c(C(=O)N3CCC(C)CC3)c(C)n(C)c2C)cc1,inactive: -23.4%,–
Cc1ccc(NC(=O)Cn2nnc3sc4c(c3c2=O)CCC(C)C4)cc1 (centres undefined),inactive: -9.18%,–
COc1ccc(Cn2c(CCC(=O)Nc3ccc(C)cc3)nc3cccnc32)cc1,inactive: -26.2%,–
CC1(C)OC[C@@H]2O[C@@]3(C(=O)O)OC(C)(C)O[C@H]3[C@@H]2O1,inactive: 2.72%,–
CC(C)CCNS(=O)(=O)c1ccc(N2CCCCS2(=O)=O)cc1,–,active: 14.1 µM
CCOc1ccc(C(=O)c2cn(CC(=O)Nc3ccc4c(c3)OCCO4)c3ccc(F)cc3c2=O)cc1,inactive: -6.9%,–
COC(=O)CN1C(=O)CSc2ccc(S(=O)(=O)Nc3ccc(C(C)=O)cc3)cc21,inactive: -12.4%,–
Cc1cccc(C)c1OC(=O)CSc1nnc(CNC(=O)c2ccccc2)o1,inactive: -20.4%,–
CC1CCN(C(=O)CSc2nnc(-c3ccccc3)o2)CC1,inactive: 23.9%,–

Structure (SMILES),"activity change, negative = inhibition",Potency
O=C(CSc1oc(-c2ccccc2)nc1S(=O)(=O)c1ccc(Cl)cc1)NC1CCCCC1,inactive: 7.89%,–
CCCc1nnc(NC(=O)Cc2coc3ccc(C(C)C)cc23)s1,inactive: -27.5%,–
COCCCNC(=O)CSc1nc2cc3c(cc2c(=O)n1CCCCCC(=O)NCc1ccc(OC)cc1)OCO3,inactive: -11.7%,–
CC(C)COC(=O)Cn1nnc2sc(-c3ccccc3)cc2c1=O,inactive: 2.77%,–
Cc1cc(C)c(NS(=O)(=O)c2cc(-c3onc(C)c3C)ccc2C)c(C)c1,inactive: -16%,–
CC1CCN(C(=O)c2ccc3c(c2)N(Cc2ccccc2)C(=O)c2ccccc2S3(=O)=O)CC1,inactive: -28.6%,–
O=C(Nc1cccc(C(F)(F)F)c1)c1cc(S(=O)(=O)N2CCCC2)c[nH]1,inactive: -11.4%,–
COc1ccccc1-c1noc(-c2ccc(NCc3ccco3)c([N+](=O)[O-])c2)n1,inactive: 49.3%,–
COc1ccc(NC(=O)Cn2nnc(C(=O)NCc3ccc4c(c3)OCO4)c2N)cc1,inactive: -16.8%,–
Cc1cccc(N2CCN(C(=O)c3ccc4c(Cl)c5c(nc4c3)CCCC5)CC2C)c1 (centres undefined),inactive: -4.91%,–
CCN(Cc1ccccc1)Cc1c(O)ccc2c(=O)c(-c3ccc(Cl)cc3)coc12,inactive: -4.71%,–
O=C(NCc1ccccc1Cl)c1cnc(N2CCOCC2)c2ccccc12,inactive: -6.92%,–
Cc1ccc(-c2cc(-c3coc4ccc(Cl)cc4c3=O)c3c(n2)-c2ccccc2OC3)cc1,inactive: -9.33%,–
Cc1ccc2cccc(NC(=O)c3cccc4c(Cl)cccc34)c2n1,inactive: -1.44%,–
O=C(C1CCC(Cn2c(=O)c3sccc3n(Cc3ccccc3)c2=O)CC1)N1CCCCC1 (centres undefined),inactive: -24.6%,–
COc1ccc(OC)c(NC(=O)CC2C(=O)NCCN2C(=O)C(F)(F)F)c1 (centres undefined),inactive: -18%,–
COc1ccc(NC(=O)c2oc3ccccc3c2NC(=O)C23CC4CC(CC(C4)C2)C3)c(OC)c1,inactive: -11.3%,–
COc1ccc2c(c1)c(CC(=O)Nc1ccc(C(C)=O)cc1)c(C)n2C(=O)c1ccc(Cl)cc1,inactive: -24.1%,–
COc1ccc(S(=O)(=O)NCCS(=O)(=O)N2CCN(c3ccccc3)CC2)cc1OC,inactive: -18.2%,–
Cc1ccc(NC(=O)c2oc3ccccc3c2NC(=O)c2ccc(F)c(F)c2)cc1,inactive: -12.2%,–

Structure (SMILES),"activity change, negative = inhibition",Potency
CCc1ccc(NC(=O)CSc2nc3c(oc4ccccc43)c(=O)n2-c2cccc(C)c2)cc1,inactive: -18.8%,–
O=C(Nc1nc2ccc(Cl)cc2s1)c1cc(=O)c2ccccc2o1,inactive: 8.52%,–
Cc1ccc(CNC(=O)CCCCCn2c(=O)c3sccc3n(CC(=O)Nc3ccc(C)c(F)c3)c2=O)cc1,inactive: -16.4%,–
Cc1ccc(NC(=O)c2ccc(CN3CCN(C)CC3)cc2)cc1Nc1nccc(-c2cccnc2)n1,inactive,–
CC(C)CN(CCCNC(=O)c1cc(=O)[nH]c2ccc(S(=O)(=O)N3CCCC3)cc12)CC(C)C,inactive: -18.2%,–
CCc1cnc2c(c1SCc1ccccc1C)c(=O)n(C)c(=O)n2C,inactive: -14.6%,–
COc1cccc(C(=O)NC(=NCCc2c[nH]c3ccc(OC)cc23)Nc2nc(C)cc(C)n2)c1,inactive: -30.8%,–
CN1CCc2c(sc(NC(=O)CSc3ccc(F)cc3)c2-c2nc3ccccc3s2)C1,inactive: -17.3%,–
COc1cc2c(cc1OC)n(CC(=O)c1cccc(Cl)c1)c(=O)n1nc(CCn3nc(C)cc3C)nc21,inactive: -19.2%,–
CCOCCCNC(=O)c1cc(Sc2cccc(Cl)c2)nc2ccccc12,inactive: -24.7%,–
O=C(CCN1C(=O)c2ccccc2Sc2ncccc21)Nc1ccc(F)cc1F,inactive: -9.24%,–
COc1ccc(C2NC(=O)NC(C)=C2C(=O)Nc2ccccc2)cc1OC (centres undefined),inactive: -10.8%,–
Cc1ccc(CC(=O)Nc2ccc3c(c2)N(C)C(=O)c2ccccc2S3)cc1,inactive: -28.3%,–
CCOC(=O)c1ccc(NC(=O)C(Cc2ccccc2)N2Cc3ccccc3C2=O)cc1 (centres undefined),inactive: -10.6%,–
Cc1ccc(-c2nn3c(=O)cc(CN4CCN(C(=O)/C=C/c5ccccc5)CC4)nc3s2)cc1,inactive: -16.8%,–
CCOC(=O)c1ccc(NC(=O)CSc2cn(CC(=O)N3CCCC3)c3ccccc23)cc1,inactive: -28.2%,–
CCc1ccc(-c2cn3c(n2)sc2cc(C(=O)NCCC4=CCCCC4)ccc23)cc1,inactive: 2.99%,–
COC(=O)c1ccc2c(c1)N(CC(=O)Nc1ccc(OC)c(Cl)c1)C(=O)c1ccccc1S2,inactive: -33.8%,–
Cc1ccc(-n2nc3c(N4CCCC(C(=O)NCc5ccc(Cl)cc5)C4)nnc(C)c3c2C)cc1 (centres undefined),inactive: -1.48%,–

# Source: PubChem BioAssay AID1508623 (National Center for Advancing Translational Sciences (NCATS), 2021)
